Results on 28 molecules are retold here after PubChem BioAssay AID1745853 (National Center for Advancing Translational Sciences (NCATS), 2022).

What all share (assay): Primary Screen for Target Class Profiling of Small Molecule Inhibitors of Methyltransferases
For assay [1], the target named is Glycine N-methyltransferase (Homo sapiens) (UniProt Q14749). The settings on record: purified enzyme, MTase-Glo SAH luminescence; measured here: GNMT inhibition; at 40 µM; stronger effect = lower value. The method in brief:
(§1)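 Each enzyme was reacted with SAM and its substrate, with compounds tested once at 40 uM; SAH formed was read by MTase-Glo luminescence.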

Assay [2] has as its target Guanidinoacetate N-methyltransferase (Homo sapiens) (UniProt Q14353). The settings on record: purified enzyme, MTase-Glo SAH luminescence; measured here: GAMT inhibition; at 40 µM; stronger effect = lower value. The essentials:
as §1

The target of assay [3] is Histamine N-methyltransferase (Homo sapiens) (UniProt P50135). The settings on record: purified enzyme, MTase-Glo SAH luminescence; measured here: HNMT inhibition; at 40 µM; stronger effect = lower value. The method in brief: as §1
In assay [4] the target is Nicotinamide N-methyltransferase (Homo sapiens) (UniProt P40261). The following applies: purified enzyme, MTase-Glo SAH luminescence; measured here: NNMT inhibition; at 40 µM; stronger effect = lower value. The essentials: as §1
Assay [5] has as its target Phenylethanolamine N-methyltransferase (Homo sapiens) (UniProt P11086). The following applies: purified enzyme, MTase-Glo SAH luminescence; measured here: PNMT inhibition; at 40 µM; stronger effect = lower value. The method in brief:
as §1

Some of the results follow. Shown are side measurements of this screen, not its main read-out; they come without a call.
% is scaled to controls: 0 for no effect and ±100 for the full control effect.

For the molecule `COc1ccc(-c2cc3n(n2)CC(C)(C(=O)NCc2ccccc2)N(Cc2cc(OC)ccc2OC)C3=O)cc1` (stereo not given), the activity change, negative = inhibition in assay [1] was found to be 8.04%; in assay [2] it was 0%; in assay [3], 9.63%; in assay [4], 5.32%; in assay [5], 2.12%.
As to `CN(CC1CCOCC1)S(=O)(=O)c1ccc(Cl)cc1`, the activity change, negative = inhibition was -2.56% in assay [1]; -6.25% in assay [2]; 0.54% in assay [3]; -10.4% in assay [4]; -3.08% in assay [5].
The matching figures for `CC(C)CNC(=O)c1ccc2c(=O)n(CC(C)C)c3nnc(SCC(=O)c4ccccc4)n3c2c1`: 8.88%, 2.01%, 10.8%, 8.26% and 8.75%.
Turning to `CN1CCC(N2CC[C@H](c3nc4ccc(C(F)(F)F)cc4[nH]3)C2)CC1`, the activity change, negative = inhibition in assay [1] is -7.32%; in assay [2], -8.07%; in assay [3], -76.2%; in assay [4], -10.8%; in assay [5], 2.78%.
Consider `O=C1NCCCCCCN(S(=O)(=O)Cc2ccccc2F)[C@H]2CCC[C@@H]12`, for which the activity change, negative = inhibition in assay [1] is -7.42%; in assay [2], -8.03%; in assay [3], -4.69%; in assay [4], -13.6%; in assay [5], -6.11%.
The matching figures for `CCCN1CC2(CCN(C)CC2)CC1C(=O)N(C)Cc1ccn[nH]1` (stereo not given): -0.975%, 2.44%, 2.07%, -2.96% and 0.969%.
As for `CC(CCC(=O)N1CCn2nc(Cc3ccccc3)cc2C1)N1CCCC1` (stereo not given), the activity change, negative = inhibition is -1.92% in assay [1]; -0.956% in assay [2]; -5.29% in assay [3]; -2.43% in assay [4]; 0.327% in assay [5].
On the same counts, the results for `O=C(c1cccnc1)N1C[C@@H]2OCC(=O)N(c3ccccc3)[C@@H]2C1` are -3.28%, -6.12%, -9.22%, -11.4% and -15.3%.
As to `O=C(CCn1ccc2cc(S(=O)(=O)N3CCCCC3)ccc21)N1CCCCC1`, the activity change, negative = inhibition is 2.19% in assay [1]; 0% in assay [2]; -0.893% in assay [3]; 0.571% in assay [4]; -1.19% in assay [5].
`CC(=O)c1c(C)cc2cccc(O)c2c1O[C@@H]1O[C@H](CO)[C@@H](O)[C@H](O)[C@H]1O`: the activity change, negative = inhibition in assay [1] is 0%; in assay [2], -8.59%; in assay [3] it was 2.63%; in assay [4], -15.3%; in assay [5], -45%.
Consider `CC(=O)O[C@H]1C[C@@]2(C)[C@@H](CC[C@H]3[C@@]4(C)C=CC(=O)[C@@H](C)[C@@H]4[C@H](OC(C)=O)C(=O)[C@@]32C)/C1=C(\CCC=C(C)C)C(=O)O`, for which the activity change, negative = inhibition in assay [1] was 3.38%; in assay [2] it was 2.36%; in assay [3] it was 4.42%; in assay [4], -11.4%; in assay [5], 0.726%.
The matching figures for `Cc1ccccc1NC(=O)Cn1nc2n(CCC(C)C)c(=O)c3ccc(C(=O)NC(C)C)cc3n2c1=O`: 5.6%, 0%, 3.46%, 0.831% and 2.81%.
As for `Cc1noc(C)c1C(=O)N[C@@H]1CN(c2ncccn2)C[C@H]1CN(C)C`, the activity change, negative = inhibition in assay [1] is -3.17%; in assay [2], -3.89%; in assay [3] it was -2.08%; in assay [4], -13.7%; in assay [5], 8.48%.
The matching figures for `CC1CCCN(c2nc3c(-c4ccccc4)nnn3c3ccccc23)C1` (stereo not given): -6.81%, 0.646%, -3.03%, -7.19% and -19.2%.
On the same counts, the results for `CC(=O)Nc1c2n(c3ccccc13)CC(C)(C(=O)NCCC(C)C)N(Cc1ccccc1Cl)C2=O` (stereo not given) are -4.85%, 4.79%, -2.48%, -4.59% and -0.211%.
Take `CCCC1c2cccn2CCN1C(=O)Nc1ccc(F)c(Cl)c1` (stereo not given): the activity change, negative = inhibition in assay [1] is -3.17%; in assay [2], 2.04%; in assay [3] it was -24.9%; in assay [4], -4.78%; in assay [5], 0.326%.
The matching figures for `Cc1ccc(CN2C(=O)c3ccc(-c4ccco4)n3CC2(C)C(=O)NC2CCCCCC2)cc1` (stereo not given): -18.9%, 1.05%, -11.4%, -16.4% and -4.84%.
Regarding `Cc1ccc([S+](=O)([O-])NC2CCN(CCn3nc4n(c3=O)CCCC4)C2)cc1` (stereo not given), the activity change, negative = inhibition in assay [1] was -18.2%; in assay [2] it was 0.534%; in assay [3] it was -3.64%; in assay [4], -8.92%; in assay [5], -5.98%.
The matching figures for `CCCn1c(=O)c2ccccc2n2c(SCC(=O)NC(C)CC)nnc12` (stereo not given): 5.9%, 3.9%, 9.36%, 7.66% and 4.8%.
Regarding `COc1ccccc1CN1C(=O)c2ccc(-c3ccco3)n2CC1(C)C(=O)NC1CCCCC1` (stereo not given), the activity change, negative = inhibition in assay [1] is -7.47%; in assay [2] it was 0%; in assay [3] it was 4.08%; in assay [4], 1.98%; in assay [5] it was -2.37%.
The matching figures for `CCCCCNc1nc2c(-c3ccc(F)cc3)nnn2c2ccccc12`: -0.574%, 0%, -1.91%, -1.31% and -2.75%.
`CCc1cc2c(cc3n2CC(C)(C(=O)NC2CCC(C)CC2)N(CCN2CCCCCC2)C3=O)s1` (stereo not given): the activity change, negative = inhibition is -6.07% in assay [1]; 1.77% in assay [2]; -10.8% in assay [3]; -9.28% in assay [4]; -5.77% in assay [5].
The matching figures for `CCOc1ccccc1NS(=O)(=O)c1ccc2c(c1)NC(=O)CC(=O)N2`: 4.41%, 0%, 8.78%, 13.6% and 0.794%.
Take `CCc1cc2c(cc3n2CC(C(=O)NC2CCCCC2)(c2ccccc2)N(Cc2ccccc2Cl)C3=O)s1` (stereo not given): the activity change, negative = inhibition in assay [1] is 2.33%; in assay [2], -20.3%; in assay [3], 2.77%; in assay [4], 0.679%; in assay [5] it was -6.7%.
As to `O=C(CCc1nnn2c1CN(C(=O)COc1ccc(F)cc1)CC2)NCc1ccccc1`, the activity change, negative = inhibition in assay [1] is -1.65%; in assay [2], -0.848%; in assay [3], 0.049%; in assay [4], -1.34%; in assay [5], 3.2%.
Turning to `COCCc1noc(-c2ccccc2OC2CN(C(=O)Cc3c[nH]c4ccccc34)C2)n1`, the activity change, negative = inhibition is -6.42% in assay [1]; 0.593% in assay [2]; -6.59% in assay [3]; 1.76% in assay [4]; -0.096% in assay [5].
The matching figures for `CCC(C)NC(=O)c1ccc2c(=O)n(CC(C)C)c3nn(CC(=O)NCc4ccc(C)cc4)c(=O)n3c2c1` (stereo not given): 2.25%, 2.84%, 5.03%, 1.39% and -0.827%.
`CCCN1C(=O)c2c(C(=O)NCc3cccs3)ncn2CC1(C)C(=O)NCCC(C)C` (stereo not given): the activity change, negative = inhibition was -0.476% in assay [1]; 0% in assay [2]; 5.04% in assay [3]; -0.999% in assay [4]; 3.73% in assay [5].
